Drawing on article PMC6212790, this text covers binding signal for 219 sequences.

The list shows a part of the results. At the low end of the ranking the order means little.

For this experiment, the target named is T1, GST-Rok-C97-191 (UniProt O34857).
T1 sequence: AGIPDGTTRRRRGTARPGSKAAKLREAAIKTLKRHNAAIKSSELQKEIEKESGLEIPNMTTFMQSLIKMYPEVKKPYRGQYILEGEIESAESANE
Nature of the experiment: protein binding microarray.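 Note: rank score from −0.5 (least bound) to 0.5 (best bound).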 To be noted: Rok is a gene silencer of Bacillus subtilis; high values mean tight binding; most listed sequences are background and not binding sites; double strand, one strand shown.
With GAACACCC, the binding signal was -0.172 E-score.

Take CCGAGAAG: the binding signal was -0.0311 E-score. Under GTAGCATA stands 0.15 E-score. The figure for AGCACGCT is -0.216 E-score. The figure for ACAATTAA is 0.158 E-score; for CATTGGGC it is 0.00461 E-score. For the sequence GAGTGTTA, the binding signal was -0.0461 E-score. The figure for GATCAGCA is -0.0559 E-score. Consider GATCTTAA, for which the binding signal stood at 0.231 E-score. For the sequence CTAGGCGC, the binding signal was -0.195 E-score. Under ATGTGAGA stands 0.0428 E-score; under GTGTGGGA, -0.0368 E-score; under AGGTTGTA, 0.303 E-score. Sequence AACGCGTG displayed a binding signal of 0.00572 E-score.

Regarding GACCCTAA, the binding signal was -0.223 E-score. Under CTACACCC stands 0.0821 E-score. In the case of AGGTACGC, the binding signal was -0.246 E-score.

Take CTCAAATA: the binding signal was -0.146 E-score.

With CTCTCACC, the binding signal was -0.313 E-score. For CCATGGTA, the binding signal is 0.22 E-score. The figure for CGGATTGC is -0.185 E-score. Under ATCGAAAA stands 0.0636 E-score; under CTAGCTCA, 0.117 E-score; under CTAGGCGA, -0.0333 E-score. Under GAGGACCA stands -0.255 E-score; under TGCGCTAA, -0.0024 E-score. As for CCGGATTC, the binding signal was 0.0415 E-score. Under CGACAGTC stands -0.0879 E-score. The figure for GCAGCAAC is -0.161 E-score; for GCAGTAGA it is 0.287 E-score. The figure for ACGAACTG is 0.0417 E-score; for CAACAGAG it is -0.0332 E-score; for AACCGCCC it is -0.268 E-score.

With CACGGTCC, the binding signal is -0.359 E-score. As to CGACTCAC, the binding signal is -0.189 E-score. Under CAACTCAA stands 0.0366 E-score; under CGCGCGTC, -0.236 E-score; under ACTGCAGC, -0.0882 E-score. The figure for AGGGCTTA is -0.106 E-score. The figure for CGGTTACA is -0.149 E-score; for ACGTACTC it is 0.0226 E-score. GGGCGCGA: the binding signal was -0.262 E-score.

As to CGCGTACC, the binding signal is -0.0539 E-score. Consider GCATATGC, for which the binding signal is 0.063 E-score.

Sequence ACGAGTAT registered a binding signal of 0.2 E-score. Consider TCCGCAGA, for which the binding signal is -0.0682 E-score. The figure for CTTCAGGA is 0.0175 E-score. Under CTTATGAA stands 0.127 E-score; under AACGCCAA, -0.0358 E-score. The figure for ATTCATCC is -0.104 E-score; for CACCAACG it is -0.0804 E-score. For the sequence AACACGTA, the binding signal was -0.0194 E-score. Under ATTGAAAA stands -0.122 E-score; under AACTGTAG, 0.27 E-score. The figure for AGGTGCCC is -0.242 E-score; for ACGAAATC it is 0.0634 E-score; for AATTAATC it is 0.24 E-score. AGCAACGG displayed a binding signal of 0.18 E-score.

With ATCCATCA, the binding signal is -0.177 E-score.

Take AGAAAACG: the binding signal is -0.0426 E-score. Under ACGAGGAC stands -0.298 E-score; under GCCAACAA, -0.106 E-score. The figure for CGAACCAG is -0.14 E-score. Turning to GCCACTCA, the binding signal is -0.165 E-score. Under GCTCCTGA stands -0.152 E-score; under GCGGGAAA, -0.137 E-score; under ACTGGGAT, 0.095 E-score. Under CAGCATGG stands -0.227 E-score; under ACCAGGCT, -0.11 E-score. As for GGGGGAAC, the binding signal is -0.126 E-score. Under CACCACTG stands -0.257 E-score; under AGTTCCGG, 0.103 E-score. Under AAAAGGGC stands -0.186 E-score. For the sequence ACCTCGTG, the binding signal was -0.0186 E-score. The figure for AGAAGCGA is -0.104 E-score.

As to CAGACCAA, the binding signal was -0.177 E-score. In turn, ATAGTGGC registered a binding signal of 0.0849 E-score. Under ATTGGCGC stands -0.0813 E-score; under CGGGATGC, -0.0981 E-score; under AACGTCTC, -0.114 E-score.

Regarding TCCGGAGA, the binding signal is -0.0285 E-score. As for AGGCCCGG, the binding signal is -0.36 E-score.

As for TGACACAA, the binding signal was -0.102 E-score.

In the case of ATCAAAAC, the binding signal came out at 0.0221 E-score.

In the case of ACAGGAAG, the binding signal was -0.112 E-score. Under AGAGTGAG stands -0.159 E-score; under CCCTGTGA, -0.371 E-score. The figure for AATTACAA is 0.251 E-score; for GTACACAA it is 0.235 E-score.

Regarding TGATTGCA, the binding signal worked out at 0.0542 E-score.

In turn, ATTACCAG came in with a binding signal of 0.222 E-score. Under GCCATCAA stands -0.133 E-score; under GTTCCTTA, -0.125 E-score.

GTAGGAAA registered a binding signal of 0.255 E-score. The figure for CGCGAATC is -0.0806 E-score; for CATAGCCG it is -0.0886 E-score.

Regarding AGGATTCG, the binding signal is -0.0164 E-score. The figure for GGCAGAGA is -0.173 E-score; for CTCTGCGA it is -0.127 E-score; for ATCGCTTC it is 0.0344 E-score. The figure for GTTTCAAA is -0.0851 E-score. Under ACTACCGG stands 0.185 E-score. CTCGGAAA came in with a binding signal of 0.0625 E-score.

With AGGTCCCC, the binding signal was -0.331 E-score.

As for AAATAGCA, the binding signal amounted to 0.0458 E-score. In the case of CCGCAAAA, the binding signal was -0.142 E-score. The figure for ACGACTAG is 0.0982 E-score; for AACACCTA it is 0.129 E-score.

Consider AGATGAGA, for which the binding signal was determined as 0.041 E-score. The figure for ATCCGCAT is 0.0779 E-score; for ATGTACGG it is 0.123 E-score; for TCTTACAA it is 0.00543 E-score. Under GTATCGAC stands 0.115 E-score. Under CGTCAACA stands -0.0547 E-score. On to GGACTCGA, for which the binding signal is -0.263 E-score.

ACTTGTAG showed a binding signal of 0.169 E-score. Under ACTCAGCG stands -0.103 E-score. Under AACGGTGC stands -0.117 E-score; under TCTAAGAA, 0.0112 E-score; under CGCACGTC, -0.0426 E-score. CATTAGGA: the binding signal was -0.0893 E-score. As for GGAGCCAA, the binding signal was -0.252 E-score.

Turning to AGTTGGAG, the binding signal was -0.16 E-score. The figure for CTCTATGC is -0.0298 E-score; for ATACACCC it is 0.196 E-score; for TCCGGTAA it is 0.0864 E-score.

Regarding GCCTTAAC, the binding signal is -0.123 E-score. The figure for AGTCCAAA is 0.0168 E-score; for GAGCGGAC it is -0.221 E-score; for CCCAGCCC it is -0.431 E-score. CCAGGTCC: the binding signal was -0.244 E-score. Under GATTAATC stands 0.0344 E-score; under GTGTTTAA, 0.0401 E-score; under CAAGGTCA, -0.126 E-score. Regarding AGCCGCTA, the binding signal is -0.00769 E-score.

As for CATGTACA, the binding signal is 0.317 E-score. The figure for CGAGAAGA is -0.0403 E-score; for CGGTGAGA it is -0.114 E-score; for AGGTTGAC it is -0.092 E-score.

The sequence GACTTCCA registered a binding signal of 0.197 E-score. Under CGTATTAG stands -0.0272 E-score; under GCCCTTCA, -0.205 E-score. Under TCGATAAA stands 0.205 E-score; under GATCTTTA, 0.0566 E-score; under ATCCAAAT, 0.0489 E-score.

In turn, GCGTGATA displayed a binding signal of 0.108 E-score. As for AAATAGGT, the binding signal was determined as 0.314 E-score. The sequence AATTTCCG came in with a binding signal of 0.0324 E-score. The figure for AGGCCCTA is -0.204 E-score. For AGCCCGGG, the binding signal was -0.179 E-score. Under GCGCCTTA stands -0.24 E-score. The figure for ATACATCG is 0.17 E-score; for ATGGATTG it is -0.219 E-score. The figure for ACGGACTG is -0.123 E-score. For the sequence ATCGGTGG, the binding signal was -0.0827 E-score. Under TGCGTTAA stands -0.134 E-score. The figure for TCCACCGA is -0.173 E-score; for TACGAGGA it is -0.119 E-score; for ACAGATGT it is -0.0201 E-score. Regarding AGCAGAGG, the binding signal is -0.215 E-score.

As to GACCAACA, the binding signal was -0.0266 E-score. The figure for AGCACGCA is -0.111 E-score. Regarding AAACGACA, the binding signal amounted to 0.141 E-score. The figure for ACTACGAC is 0.0766 E-score; for ATCGTGAC it is -0.179 E-score.

Turning to CTGTGCTA, the binding signal was -0.119 E-score. In the case of CGATAGCC, the binding signal is -0.0659 E-score. In the case of CCGACTGA, the binding signal was -0.0764 E-score. Under AACTTTAC stands 0.0803 E-score.

With ATCAGGTC, the binding signal came to 0.0134 E-score. Consider GGCGGCAA, for which the binding signal is -0.246 E-score.

The sequence CAGTTCTA showed a binding signal of 0.271 E-score. The figure for ATCCGACC is -0.323 E-score; for CTTAACCA it is -0.0422 E-score; for TTTAAAAA it is 0.00271 E-score. Take ACACAAAG: the binding signal was 0.0993 E-score. The figure for ACGACGAT is 0.0985 E-score. Under CACTAAGG stands -0.084 E-score; under GCTCGGCA, -0.219 E-score; under CATATCTA, 0.34 E-score.

In the case of ACCTGCTA, the binding signal was -0.227 E-score.

Take ACGTTTCT: the binding signal worked out at 0.18 E-score. The figure for AAGCTACC is 0.362 E-score; for CTCGGCAG it is -0.0953 E-score; for AAATGGAT it is 0.226 E-score. Under AAGAGTTC stands -0.0763 E-score; under AGAGACTC, -0.16 E-score; under ATTTGCAC, 0.135 E-score. The figure for CCCTATGC is -0.104 E-score; for CATCGCAA it is 0.064 E-score; for ACTGGGGA it is -0.208 E-score.

On to AGCAGGGC, for which the binding signal is -0.15 E-score. Under CCTGAGCA stands -0.144 E-score; under CCAACGCA, -0.181 E-score. As to CGGAGTGA, the binding signal was -0.189 E-score. Under GAAGTGGC stands -0.132 E-score.

CAGTGGGC: the binding signal is -0.187 E-score.

As to CCCAAGGC, the binding signal is -0.218 E-score. The figure for AGTTAAAA is 0.324 E-score; for ACAGACCA it is -0.0557 E-score.

ATACAGAA had a binding signal of 0.13 E-score. CAAAATAA: the binding signal came out at 0.0411 E-score.

ATTAACAC yielded a binding signal of 0.00323 E-score. The figure for TGAAGCCA is -0.143 E-score; for CTAAGTGA it is -0.000539 E-score; for AGAGACGC it is -0.162 E-score. The figure for CTCTGAGA is 0.0417 E-score; for GGGGTACC it is -0.307 E-score; for AGGGGTTA it is 0.0414 E-score. Turning to AAAGGAGC, the binding signal is -0.143 E-score. Under AAGGGCAC stands -0.165 E-score.

Take AACCGTTA: the binding signal was 0.14 E-score. Under CGCAGTTC stands -0.224 E-score; under ATGACTAG, 0.108 E-score. The figure for CGGCGCAA is -0.202 E-score; for GGCGGCCA it is -0.298 E-score. Under GTGTTTTA stands 0.173 E-score. In turn, ATACAACG registered a binding signal of 0.172 E-score. As for CCTGCATA, the binding signal turned out to be 0.0203 E-score.
